Test results reported in the supplement of paper PMC10126150.
Sequences with one replicate were seen in a single cluster, so their values are uncertain.

Test system: ATP
Test: switch fluorescence ratio, 500 uM ATP over buffer (Cy3 cluster intensity, sum of 5 cycles each) (fold (ratio)); higher = stronger signal-on switching upon ATP binding; sequences stand for … in TCGTCGGCAGCGTCAGATGTGTATAAGAGACAGTTTTTTTTTTTTTTTTTTTTTTTTT…TC
Details: aptamer strand: ATP DNA aptamer (quencher-CACCTGGGGGAGTATTGCGGAGGAAGG + anchor), 100 nM annealed; ATP concentration: 500 uM; one replicate
Outline: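 Switching-strand clusters labelled with Cy3 on a modified Illumina MiSeq flow-cell were annealed to 100 nM quencher-labelled ATP aptamer, imaged in selection buffer, and re-imaged after 15 min with 500 uM ATP at 22 °C. This was done over five cycles with NaOH stripping and re-annealing in between. The fluorescence ratio is summed target-cycle over summed buffer-cycle Cy3 intensity per cluster, averaged per switch-domain sequence, excluding clusters outside 100-1000 RFU.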
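Note: ATP exposure 15 min at 22 °C before imaging.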

## GCGGAACCTT
  switch fluorescence ratio: 0.953

## GCACAGGGTT
  switch fluorescence ratio: 1.11

## CTGAGATCCG
  switch fluorescence ratio: 1.06

## TGTCCAATCA
  switch fluorescence ratio: 0.972

## CGCGGGGACG
  switch fluorescence ratio: 1.03

## ACATTTTATG
  switch fluorescence ratio: 1.01

## GGTTTTTATA
  switch fluorescence ratio: 0.999

## ACTTCTGTCA
  switch fluorescence ratio: 1.03

## ATAGGATGCT
  switch fluorescence ratio: 0.988

## TCTACATACA
  switch fluorescence ratio: 1.37

## CTTCTCGGCT
  switch fluorescence ratio: 1.13

## TCTGGAGCTT
  switch fluorescence ratio: 3.75

## TAATTGGTGA
  switch fluorescence ratio: 1.01

## TTGATGCAGT
  switch fluorescence ratio: 0.973

## CCCGGTACAT
  switch fluorescence ratio: 1.03

## ACACTCAGGC
  switch fluorescence ratio: 1.11

## TTTATTTACC
  switch fluorescence ratio: 1.06

## AACGCCGCTG
  switch fluorescence ratio: 1.09

## CCACTTGCTG
  switch fluorescence ratio: 1.01

## AGTTAAAGAC
  switch fluorescence ratio: 1.06

## TCGTGCGCCC
  switch fluorescence ratio: 1.47

## CAGGCGACCA
  switch fluorescence ratio: 1.05

## TTCCCATAAC
  switch fluorescence ratio: 1.23

## CGGCTGATG
  switch fluorescence ratio: 0.998

## CGTTGGTTGT
  switch fluorescence ratio: 0.986

## GCAAAAATTG
  switch fluorescence ratio: 1.04

## GGGGTAACAC
  switch fluorescence ratio: 0.97

## TGAGTTCCTA
  switch fluorescence ratio: 1.03

## TCCGGGATGC
  switch fluorescence ratio: 1.11

## ACTACTAGGC
  switch fluorescence ratio: 1.03

## TGCACCGCTT
  switch fluorescence ratio: 1.23

## CATCCGTTG
  switch fluorescence ratio: 2.43

## GTTCTGATTA
  switch fluorescence ratio: 0.971

## AAGCTTTATA
  switch fluorescence ratio: 1.03

## TGTACGACGT
  switch fluorescence ratio: 1.03

## CGTAAAGTTT
  switch fluorescence ratio: 0.97

## AACGTATAAA
  switch fluorescence ratio: 1.17

## CGGATCACGT
  switch fluorescence ratio: 0.983

## TCGCTTGAAC
  switch fluorescence ratio: 2.12

## GATGGGTTTA
  switch fluorescence ratio: 0.992

## CTATGGCAGG
  switch fluorescence ratio: 1.07

## GTTTTCGCG
  switch fluorescence ratio: 1.07

## GGGTCAGGAG
  switch fluorescence ratio: 0.971

## ACTTAAAATA
  switch fluorescence ratio: 1.2

## GTGTGTGATC
  switch fluorescence ratio: 1.05

## TTCCGTGGCA
  switch fluorescence ratio: 1.59

## TGTTGTGG
  switch fluorescence ratio: 0.98

## ACAGGCTACG
  switch fluorescence ratio: 1.06

## GGGTCGCCA
  switch fluorescence ratio: 0.984

## CCGGTTCTTA
  switch fluorescence ratio: 1.01

## GATCCAGGGT
  switch fluorescence ratio: 1.09

## TTCGCTGGTC
  switch fluorescence ratio: 1.13

## CTTCTCTCCT
  switch fluorescence ratio: 1.13

## CGAAAGGACA
  switch fluorescence ratio: 1.01

## CCAGGGCCGG
  switch fluorescence ratio: 1.01

## GACGATCGTG
  switch fluorescence ratio: 0.961

## AGGTCCGTAC
  switch fluorescence ratio: 1.09

## CAGTCACAAA
  switch fluorescence ratio: 0.978

## ACTACGTCCG
  switch fluorescence ratio: 1.11

## AATGGCGTGT
  switch fluorescence ratio: 1.03

## TCAGAGGGAG
  switch fluorescence ratio: 0.965

## GCCTTTAGTT
  switch fluorescence ratio: 0.971

## ACGAATAGAA
  switch fluorescence ratio: 1.03

## CTCTTGCTGG
  switch fluorescence ratio: 1.01

## GAGGTATCTT
  switch fluorescence ratio: 0.994

## AAGGAGAGAC
  switch fluorescence ratio: 1.01

## GAGAGGTTTC
  switch fluorescence ratio: 1.01

## TGCCACGGTG
  switch fluorescence ratio: 2.16

## ATCAGCATGG
  switch fluorescence ratio: 1.04

## CCGCCTGTTT
  switch fluorescence ratio: 1.13

## TATAGCTTAA
  switch fluorescence ratio: 0.978

## CTATCAGACA
  switch fluorescence ratio: 1.04

## GATACGAGTT
  switch fluorescence ratio: 0.958

## CACGTGATTC
  switch fluorescence ratio: 1

## GCTCGATACT
  switch fluorescence ratio: 1.23

## CAGCGTCTCA
  switch fluorescence ratio: 1.01

## TACCCTAGGG
  switch fluorescence ratio: 0.957

## AAGTGCCCTA
  switch fluorescence ratio: 0.975

## TCGTTAGTAA
  switch fluorescence ratio: 1.01

## GCTGCTTTAT
  switch fluorescence ratio: 0.972

## TATATCACCC
  switch fluorescence ratio: 0.994

## TCGGGTTTAC
  switch fluorescence ratio: 1.4

## TTCTCATTG
  switch fluorescence ratio: 0.995

## TCATTGATCT
  switch fluorescence ratio: 1

## ATATGTTTTG
  switch fluorescence ratio: 0.989

## TATCGGTAAT
  switch fluorescence ratio: 1.01

## GGGCGAGGCT
  switch fluorescence ratio: 0.989

## ATTGTTAAGT
  switch fluorescence ratio: 0.944

## TTCAATGCTG
  switch fluorescence ratio: 1.18

## TCCGGATGAG
  switch fluorescence ratio: 1.03

## TCCGTTTGGC
  switch fluorescence ratio: 1.06

## TTTGCCCCCC
  switch fluorescence ratio: 1.44

## TAGTGCAATT
  switch fluorescence ratio: 1.04

## GGTTAATCAC
  switch fluorescence ratio: 0.981

## CTGTGAGGG
  switch fluorescence ratio: 0.951

## GGCACCCCTG
  switch fluorescence ratio: 0.979

## TTGCGAGCAC
  switch fluorescence ratio: 1.15

## TCCGAACGAA
  switch fluorescence ratio: 1.19

## TACCGTGACT
  switch fluorescence ratio: 1.13

## TGGACGCGCA
  switch fluorescence ratio: 0.978

## GATAACTTGC
  switch fluorescence ratio: 1.06

## GTAAGGGCCA
  switch fluorescence ratio: 1.01

## CCGCTCTCGG
  switch fluorescence ratio: 1.1

## ATTGTCCGAC
  switch fluorescence ratio: 1.02

## TGTCAATATC
  switch fluorescence ratio: 1.76

## GAGGCCACCA
  switch fluorescence ratio: 1.03

## GATCTAATTT
  switch fluorescence ratio: 1.02

## AGCAGATGAA
  switch fluorescence ratio: 0.999

## CAGGACCAAG
  switch fluorescence ratio: 0.991

## CTAGACGGTT
  switch fluorescence ratio: 0.987

## TACATTGGG
  switch fluorescence ratio: 0.974

## ATGCCTTTCT
  switch fluorescence ratio: 0.989

## TAGGTCGGG
  switch fluorescence ratio: 0.984

## ATTTCTCGTA
  switch fluorescence ratio: 0.963

## GTAAATTTAG
  switch fluorescence ratio: 0.979

## GTGGCCGCTG
  switch fluorescence ratio: 0.954

## GGGTTGTCAC
  switch fluorescence ratio: 0.954

## CGTTACACTT
  switch fluorescence ratio: 1.01

## GGTAGTGCCA
  switch fluorescence ratio: 0.989

## TCGTAGATTG
  switch fluorescence ratio: 0.96

## GTTGGATCTG
  switch fluorescence ratio: 1.02

## TAACGTCCCT
  switch fluorescence ratio: 0.972

## TAGACGGCAC
  switch fluorescence ratio: 1.8

## AAAATATAGC
  switch fluorescence ratio: 0.98

## AAAACGGCAT
  switch fluorescence ratio: 1.12

## TGGTCATGAT
  switch fluorescence ratio: 0.961

## CTTTAAAGCA
  switch fluorescence ratio: 0.979

## GCCCAAAGCG
  switch fluorescence ratio: 1.01

## TAAGACGGGT
  switch fluorescence ratio: 0.967

## CAATGTACCA
  switch fluorescence ratio: 1.08

## GGCCCTGGTG
  switch fluorescence ratio: 6.14

## GCAGGGCTCA
  switch fluorescence ratio: 1.04

## CGAACAATAA
  switch fluorescence ratio: 1.67

## TCAAAAGCGG
  switch fluorescence ratio: 1.01

## CGCTCAATTA
  switch fluorescence ratio: 1.06

## GAACTAGTAG
  switch fluorescence ratio: 1.02

## TGAGACTTCT
  switch fluorescence ratio: 1.02

## AGCGACCCTC
  switch fluorescence ratio: 1.11

## CGTGACATTA
  switch fluorescence ratio: 1.03

## CCGCGATAGA
  switch fluorescence ratio: 1.58

## CATCCTAAGC
  switch fluorescence ratio: 1.03

## ACAACTGAAT
  switch fluorescence ratio: 1.02

## TTGATTGGTG
  switch fluorescence ratio: 1.04

## CGTGCTGCCA
  switch fluorescence ratio: 1.02

## GAACAGTACA
  switch fluorescence ratio: 1.26

## CAATTGTGTG
  switch fluorescence ratio: 1.01

## TTGCATCAAC
  switch fluorescence ratio: 1.05

## GTCTGTGTTG
  switch fluorescence ratio: 0.964

## TAGAAAAGA
  switch fluorescence ratio: 1.02

## GTTTAATGCG
  switch fluorescence ratio: 0.928

## CAGCGTCCGG
  switch fluorescence ratio: 1.01

## TTTGGAATGT
  switch fluorescence ratio: 1.07

## TTCTATTAGG
  switch fluorescence ratio: 0.993

## CAGTGTGCTG
  switch fluorescence ratio: 1.09

## AGGGATAATG
  switch fluorescence ratio: 1.01

## AGCAACCCCA
  switch fluorescence ratio: 1.76

## CTTCGTTGTG
  switch fluorescence ratio: 0.992

## TTTCTATTCC
  switch fluorescence ratio: 1.02

## CAGAATTCGC
  switch fluorescence ratio: 0.977

## CACGAAACGG
  switch fluorescence ratio: 1.24

## ATATCTGCTA
  switch fluorescence ratio: 1.01

## ATAGAAAAGA
  switch fluorescence ratio: 0.989

## TATCCAGGCC
  switch fluorescence ratio: 0.993

## ACCTAACACT
  switch fluorescence ratio: 1.19

## GGACCATAGA
  switch fluorescence ratio: 1.01

## GCAAAAGA
  switch fluorescence ratio: 1.02

## TTCACGAAGT
  switch fluorescence ratio: 1.04

## ACTCTGTACC
  switch fluorescence ratio: 1.1

## CATGTTGTGA
  switch fluorescence ratio: 0.965

## CCAGTACTAG
  switch fluorescence ratio: 1.05

## ACATAAAAAA
  switch fluorescence ratio: 1.18

## AAACAGCA
  switch fluorescence ratio: 1.04

## AAGTTATGTC
  switch fluorescence ratio: 1.12

## TGATGGATGC
  switch fluorescence ratio: 0.97

## GCATGTCGTC
  switch fluorescence ratio: 1.01

## TTGTATGCAG
  switch fluorescence ratio: 1.01

## GACAACCGA
  switch fluorescence ratio: 1.13

## TGTATAATTT
  switch fluorescence ratio: 0.997

## TAATTTCCG
  switch fluorescence ratio: 1.04

## GGACGGGATG
  switch fluorescence ratio: 0.979

## GTTAAGGGA
  switch fluorescence ratio: 0.992

## AGCCACCC
  switch fluorescence ratio: 1.09

## GGCGCAGTCC
  switch fluorescence ratio: 1.01

## TCTCGAATCG
  switch fluorescence ratio: 0.964

## GGAGGGCCAA
  switch fluorescence ratio: 0.985

## CTATGGCCCG
  switch fluorescence ratio: 0.938

## TGCATTCTTC
  switch fluorescence ratio: 0.979

## ACGCTTGCAC
  switch fluorescence ratio: 1.27

## CTATGGTATT
  switch fluorescence ratio: 1.01

## TCAGAATCGC
  switch fluorescence ratio: 1.01

## GGAAACCCGT
  switch fluorescence ratio: 1.06

## CTCCATATCA
  switch fluorescence ratio: 0.969

## TCAGGCGGGG
  switch fluorescence ratio: 0.999

## TGATTAAAGA
  switch fluorescence ratio: 0.977

## TCTGCGTGCT
  switch fluorescence ratio: 1.02

## ATCGTCCGTC
  switch fluorescence ratio: 0.978

## TGACATATGG
  switch fluorescence ratio: 1.05

## CATAGAAATA
  switch fluorescence ratio: 1.02

## GATATTCAGA
  switch fluorescence ratio: 0.976

## TGGTTTTAG
  switch fluorescence ratio: 1.03

## GGCGGCTAGG
  switch fluorescence ratio: 0.978
